Experimental data from PubChem BioAssay AID1476 (National Center for Advancing Translational Sciences (NCATS), 2009).
In all, about 200,000 compounds went through this assay and about 4,500 (2.2%) were called active. The shares of active, inactive and inconclusive entries below differ from those in the screen. Calls follow the shape of the dose curve; as a rule, active = well fitted inhibition curve with a large enough effect; inconclusive = small, poorly fitted or top-dose-only effect, or effect the other way; inactive = flat fitted curve, though single readings scatter. Where the call is inconclusive, the potency comes from a doubtful curve fit. Some structures have more than one record in an assay (separate samples or runs), and their calls can disagree.

The molecules below were run against Cruzipain (Trypanosoma cruzi) (UniProt P25779) (assay: qHTS Assay for Promiscuous and Specific Inhibitors of Cruzain (without detergent)). Settings: purified cruzain, Z-FR-AMC fluorescence, no detergent.
Procedure, shortened: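 Purified cruzain at 1.5 nM, pre-incubated 15 min with compound at room temperature in 100 mM sodium acetate pH 5.5, 5 mM DTT, 0.00005% Triton X-100. Reaction started with 2 uM Z-FR-AMC; AMC fluorescence increase over 60 s gives rate.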
Also: nearly all actives have a fitted effect of over 40% in size.
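For max response, negative = inhibition in this document: plate controls were enzyme without inhibitor for no effect and buffer without enzyme for full effect.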
Potency is read from the fitted curve at half-maximal effect; tags tell the direction and shape of the fitted curve.

Sequence of UniProt P25779 (P25779 whole entry, looked up): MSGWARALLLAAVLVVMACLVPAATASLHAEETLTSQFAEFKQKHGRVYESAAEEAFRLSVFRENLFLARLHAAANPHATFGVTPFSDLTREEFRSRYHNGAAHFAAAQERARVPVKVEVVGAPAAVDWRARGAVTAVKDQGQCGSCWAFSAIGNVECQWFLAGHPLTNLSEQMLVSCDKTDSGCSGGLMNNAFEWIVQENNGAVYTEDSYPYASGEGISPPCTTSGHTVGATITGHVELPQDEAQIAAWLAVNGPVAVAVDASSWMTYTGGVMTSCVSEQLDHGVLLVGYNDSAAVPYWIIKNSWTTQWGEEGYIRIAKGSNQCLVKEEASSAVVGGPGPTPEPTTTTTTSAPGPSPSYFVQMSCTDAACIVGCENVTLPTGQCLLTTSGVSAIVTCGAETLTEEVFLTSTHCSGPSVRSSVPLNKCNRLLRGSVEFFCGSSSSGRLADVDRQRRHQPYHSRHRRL

| SMILES | Potency | max response, negative = inhibition |
| --- | --- | --- |
| CN1C(=O)C(O)(CC(=O)c2cccc(-n3cccc3)c2)c2ccccc21 (stereo not given) | inconclusive: 25.1 µM [inhibitor, single point] | – |
| CC(=O)c1ccc(NC(=O)c2cc3sccc3n2Cc2ccc(Cl)cc2)cc1 | inconclusive: 39.8 µM [inhibitor, single point] | – |
| Cc1ccc(N(CC(=O)NCCSc2ccccc2)S(=O)(=O)c2ccc(F)cc2)cc1 | – | inactive: -23.2% |
| CCC(C)C(=O)OC1C[C@@]2(C)C(c3ccoc3)OC(=O)CC23OC2(C)OC34C(OC(=O)C(C)C)[C@]3(O)C(OC(=O)C5(C)OC5C)[C@]5(C)CC3(O)[C@](C)(C5CC(=O)OC)C14O2 (stereo not given in full) | inconclusive: 3.98 µM [activator, full curve] | – |
| CCN(CC)S(=O)(=O)c1ccc(C(=O)NC2CC(=O)N(c3ccc(OC)c(OC)c3)C2)cc1 (stereo not given) | inconclusive: 39.8 µM [activator, single point] | – |
| N/C(=N\OC(=O)c1ccc2ccccc2c1)c1ccc(Br)cc1 | active: 10 µM | – |
| COc1ccc(-c2cccc([C@H]3[C@@H]4C=CC[C@@H](C)[C@@H]4C(=O)N3Cc3ccccc3)c2)cc1 | inconclusive: 44.7 µM [inhibitor, single point] | – |
| Clc1ccc(/C=N/c2c(-c3ccc(Cl)cc3)nc3n2CCS3)cc1 | inconclusive: 39.8 µM [inhibitor, single point] | – |
| COc1ccc(CNc2oc(/C=C/c3cc(OC)c(OC)c(OC)c3)nc2C#N)cc1 | inconclusive: 31.6 µM [activator, single point] | – |
| Cc1cc(C)c(NC(=O)CSC2=Nc3ccccc3C3=NC(CC(=O)NCc4cccs4)C(=O)N23)c(C)c1 (stereo not given) | inconclusive: 39.8 µM [activator, single point] | – |
| CCN1CCc2nc3sc(C(=O)Nc4ccccc4OC(F)(F)F)c(N)c3cc2C1 | inconclusive: 39.8 µM [inhibitor, single point] | – |
| Cc1nn(-c2ccccc2)c(Cl)c1/C=N/NC(=O)c1ccccc1NS(=O)(=O)c1cccs1 | inconclusive: 20 µM [inhibitor, single point] | – |
| CC(C)c1ccc2c(c1)c(SC(C)(C)C)c(CC(C)(C)C(=O)O)n2Cc1ccc(Cl)cc1 | active: 7.94 µM | – |
| Cc1ccc(NC(=O)N2CCN(Cc3nc4ccc(C)cc4o3)CC2)cc1 | inconclusive: 31.6 µM [activator, single point] | – |
| CC(=O)Nc1c(C)nn(-c2ccccc2)c1N1CCC(C(=O)Nc2ccccc2C(F)(F)F)CC1 | – | inactive: 25.6% |
| Cn1c(=O)c2c(-c3ccccc3F)c3c(nc2n(C)c1=O)-c1ccccc1C3O (stereo not given) | inconclusive: 31.6 µM [inhibitor, single point] | – |
| COc1ccc(C(=O)c2sc3nc(-c4ccccc4)ccc3c2N)cc1OC | – | inactive: 1.69% |
| Brc1ccc(-c2cn3c(n2)CCc2ccc4cccnc4c2-3)cc1 | inconclusive: 39.8 µM [inhibitor, single point] | – |
| O=C(Oc1oc(-c2ccco2)nc1C=Nc1ccccc1)c1ccco1 | active: 15.8 µM | – |
| COc1cccc(Nc2nc3c(S(=O)(=O)c4cc(C)ccc4C)nnn3c3ccsc23)c1 | – | inactive: -5.82% |

| SMILES | Potency | max response, negative = inhibition |
| --- | --- | --- |
| Cc1ccc(Cl)cc1-n1c(SCC(=O)NCc2ccccc2)nc2n[nH]c(C)c2c1=N | inconclusive: 39.8 µM [activator, single point] | – |
| CSc1ccc(CCNC(=O)CN2C(=O)COc3ccc(S(=O)(=O)N4CCCCCC4)cc32)cc1 | – | inactive: -7.82% |
| CCn1cc(C(=O)OCC(=O)Nc2cccc(S(=O)(=O)N3CCOCC3)c2)c(=O)c2ccc(C)nc21 | inconclusive: 39.8 µM [activator, single point] | – |
| Cc1ccccc1/C(N)=N/O | – | inactive: -6.51% |
| COc1cc(CN(C(=S)NCC(=O)NC2CCCC2)C2CCCC2)cc(OC)c1OC | inconclusive: 39.8 µM [activator, single point] | – |
| Cc1nn(-c2ccccc2)c2sc(C(=O)c3c(N)n(C)c(=O)n(C)c3=O)cc12 | inconclusive: 31.6 µM [activator, single point] | – |
| COc1ccc(C(=O)N2c3ccccc3C=CC2C#N)cc1 (stereo not given) | – | inactive: -1.5% |
| COc1ccc(C2OC(=O)CC2C(=O)N2CCN(c3cc(Cl)ccc3C)CC2)cc1OC (stereo not given) | inconclusive: 31.6 µM [activator, single point] | – |
| COc1ccc(C(=O)NCCc2csc(-c3ccc(Cl)cc3)n2)c(OC)c1 | inconclusive: 25.1 µM [activator, single point] | – |
| FC(F)(F)c1nc(N2CCN(c3ccccc3)CC2)nc2c1CCCCC2 | inconclusive: 39.8 µM [inhibitor, single point] | – |
| CC1CCN(S(=O)(=O)c2cc(C(=O)N3CCN(c4ncccn4)CC3)ccc2Br)CC1 | inconclusive: 39.8 µM [activator, single point] | – |
| CCCCn1c(SCC(N)=O)nc2c(sc3ccccc32)c1=O | inconclusive: 25.1 µM [inhibitor, single point] | – |
| CC(C)C[C@@H](CC(=O)N[C@@H](CCCN)CC(=O)N[C@@H]1CCNC[C@H]1C(=O)N[C@H](CC(=O)N[C@@H](CCC(=O)O)CC(=O)O)CC(C)C)NC(=O)[C@@H]1CCCC[C@H]1N | – | inactive: 5.83% |
| Cn1cccc1/C=N/n1c(-c2ccc(Cl)cc2)n[nH]c1=S | inconclusive: 39.8 µM [inhibitor, single point] | – |
| O=C(CC(c1ccccc1)c1ccco1)Nc1nccs1 (stereo not given) | inconclusive: 39.8 µM [inhibitor, single point] | – |
| COc1ccccc1N=Cc1nc(-c2ccccc2)oc1OC(C)=O | active: 20 µM | – |
| CN1C(=O)c2ccccc2Sc2ccc(NC(=O)N3CCN(c4ccc(F)cc4)CC3)cc21 | inconclusive: 39.8 µM [activator, single point] | – |
| Cc1cc(C)c2oc(-c3ccc(C)c(NC(=S)NC(=O)/C=C/c4ccco4)c3)nc2c1 | inconclusive: 3.16 µM [inhibitor, full curve] | – |
| COc1ccccc1OCC(=O)NCCS(=O)(=O)N1CCN(c2ccccc2OC)CC1 | inconclusive: 39.8 µM [activator, single point] | – |
| CCOC(=O)C1=C(SCC)c2cc3c(n2C1=O)CCCC3 | inconclusive: 39.8 µM [activator, single point] | – |

| SMILES | Potency | max response, negative = inhibition |
| --- | --- | --- |
| Cc1cccc(C)c1NC(=O)CCCSc1nnc(-c2ccc(Cl)cc2)n1-c1ccccc1 | inconclusive: 20 µM [activator, single point] | – |
| O=C(NCc1ccccc1Cl)c1ccc2c(c1)NC(=O)C(CS(=O)(=O)Cc1ccc(Cl)cc1)N2 (stereo not given) | inconclusive: 12.6 µM [inhibitor, partial curve, poor fit] | – |
| COCCn1c(=O)c(-c2ccc(F)cc2)nc2cnc(OC)nc21 | – | inactive: -4.14% |
| COc1ccccc1-c1nn(CCC(=O)Nc2ccccc2)c2nc(C)cc(C)c12 | inconclusive: 39.8 µM [activator, single point] | – |
| COc1ccc(C2Nc3ccccc3C(=O)N2Cc2ccco2)cc1COc1ccc(NC(C)=O)cc1 (stereo not given) | inconclusive: 39.8 µM [activator, single point] | – |
| Cn1cccc1/C=N/N1CCN(c2ccccn2)CC1 | – | inactive: 12.3% |
| CCOC(=O)c1c(C)[nH]c(C)c1S(=O)(=O)N1CCCC(C(=O)N2CCN(c3cccc(Cl)c3)CC2)C1 (stereo not given) | inconclusive: 25.1 µM [activator, single point] | – |
| COc1ccccc1C(=O)Nc1ccc(-c2cc(C(F)(F)F)nn2-c2ccccc2)cc1 | inconclusive: 15.8 µM [inhibitor, partial curve] | – |
| O=c1cc(CN2CCN(C/C=C/c3ccccc3)CC2)c2cc(O)c(-c3ccccc3)cc2o1 | inconclusive: 39.8 µM [inhibitor, single point] | – |
| COC(=O)CC1C2(C)CC34OC5(C)O[C@@]6(C7/C(=C(/OC)C(C)C)C(=O)OC(c8ccoc8)[C@@]7(C)C(OC(=O)C(C)C)C(OC)[C@]6(O5)[C@@]13C)C(OC)[C@]4(OC)C2OC(C)=O (stereo not given in full) | inconclusive: 10 µM [activator, single point] | – |
| CCCOc1ccc(C(=O)NNC(=S)NC(=O)c2cc(-c3ccccc3)nc3ccccc23)cc1 | inconclusive: 3.98 µM [inhibitor, single point] | – |
| COc1ccccc1N1CCN(C(=O)Cn2c(=O)nc(-c3ccccc3)c3ccccc32)CC1 | – | inactive: -5.58% |
| COc1ccc(Cl)cc1NC(=O)NC1CCCCC1 | inconclusive: 39.8 µM [inhibitor, single point] | – |
| O=C(Nc1cc(C(F)(F)F)ccc1N1CCOCC1)C1Cc2ccccc2CN1C(=O)c1ccco1 (stereo not given) | inconclusive: 39.8 µM [activator, single point] | – |
| CC1=C(C(=O)OCc2ccccc2)C(C2CCCCC2)NC(=O)N1CCCCCC(=O)O (stereo not given) | inconclusive: 39.8 µM [activator, single point] | – |
| CCc1ccccc1S(=O)(=O)Cc1ccc(C(=O)N2CCN(c3ccccc3OC)CC2)o1 | inconclusive: 31.6 µM [activator, single point] | – |
| O=C(O)c1cccnc1Cl | – | inactive: 1.13% |
| O=C(CSc1ccccc1)Nc1nnc(/C=C/c2ccccc2)s1 | inconclusive: 31.6 µM [inhibitor, single point] | – |
| CC(=O)Nc1ccc(/C(C)=N/Nc2nc(Nc3cccc4ccccc34)nc(N3CCOCC3)n2)cc1 | inconclusive: 39.8 µM [activator, single point] | – |
| CCOC(=O)c1cccc(NC(=O)c2cc(C)nc3c2c(C)nn3-c2ccc(C)cc2)c1 | – | inactive: -22.5% |
